The record followed here is PMC3462190, “A Peptidic Unconjugated GRP78/BiP Ligand Modulates the Unfolded Protein Response and Induces Prostate Cancer Cell Death” (PLoS ONE, 2012).

Chains of the proteins cited; added tags and fusions are not shown. Lines headed by an entry give the natural chain unless they say otherwise; changes in a name come on top. A line that says so, or that is headed by a name, gives the form on record, which may keep a tag or linker. Residues count along the entry.
UniProt P11021: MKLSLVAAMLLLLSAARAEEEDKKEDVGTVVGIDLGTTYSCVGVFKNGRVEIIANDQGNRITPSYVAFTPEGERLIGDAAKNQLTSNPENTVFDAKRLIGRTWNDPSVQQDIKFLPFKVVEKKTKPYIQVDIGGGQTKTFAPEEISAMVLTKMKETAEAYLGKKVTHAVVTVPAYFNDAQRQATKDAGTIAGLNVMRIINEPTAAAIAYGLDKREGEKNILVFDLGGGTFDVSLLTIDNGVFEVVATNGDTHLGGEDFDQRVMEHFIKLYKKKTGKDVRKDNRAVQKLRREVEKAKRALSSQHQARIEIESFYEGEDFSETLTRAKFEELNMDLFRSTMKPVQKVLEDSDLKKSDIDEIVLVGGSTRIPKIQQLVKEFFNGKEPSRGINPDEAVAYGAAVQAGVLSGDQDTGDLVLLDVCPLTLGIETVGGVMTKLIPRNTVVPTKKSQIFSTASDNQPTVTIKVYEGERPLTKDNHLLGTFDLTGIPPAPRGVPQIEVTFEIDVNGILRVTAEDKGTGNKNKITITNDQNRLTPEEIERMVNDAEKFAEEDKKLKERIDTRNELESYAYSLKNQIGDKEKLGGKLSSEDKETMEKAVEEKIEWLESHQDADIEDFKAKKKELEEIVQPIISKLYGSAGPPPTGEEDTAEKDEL
GST-fused GRP78-SBD (GRP78 409-651): residues 409-651 of P11021

These are yes or no findings as the source states them, for the method shown. Binding seen in cells or lysates may run through a third protein. Some entries that bind do so weakly or less than the wild type. Tags and fused reporters may be left off the sequences shown.

The target in experiment [1] is T1, GST-Bag-1(202-269) peptide (UniProt Q99933).
T1 sequence: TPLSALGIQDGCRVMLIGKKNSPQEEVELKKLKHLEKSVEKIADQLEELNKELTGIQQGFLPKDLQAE
Kind of experiment: pull-down; GST-fused Bag-1 proteins or Bag-1 peptides (5-25 µg) on glutathione-agarose beads, incubated with 400 µg of 22Rv.1 cell lysate; Western blot with anti-GRP78/BiP and anti-GST; only the target purified. A general note: In western blotting, separated proteins are transferred to a membrane and probed.

In experiment [2] the target is T2, GST-C-term peptide (Bag-1L 241-269) (UniProt Q99933).
T2 sequence: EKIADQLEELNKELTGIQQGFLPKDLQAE
The experiment is described as above.

The target in experiment [3] is T3, GST-N-term peptide (Bag-1L 202-241) (UniProt Q99933).
T3 sequence: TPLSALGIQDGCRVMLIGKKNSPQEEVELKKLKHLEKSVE
Described as above.

In a further experiment the target is T4, GST-fused Bag-1L (UniProt Q99933).
T4 sequence: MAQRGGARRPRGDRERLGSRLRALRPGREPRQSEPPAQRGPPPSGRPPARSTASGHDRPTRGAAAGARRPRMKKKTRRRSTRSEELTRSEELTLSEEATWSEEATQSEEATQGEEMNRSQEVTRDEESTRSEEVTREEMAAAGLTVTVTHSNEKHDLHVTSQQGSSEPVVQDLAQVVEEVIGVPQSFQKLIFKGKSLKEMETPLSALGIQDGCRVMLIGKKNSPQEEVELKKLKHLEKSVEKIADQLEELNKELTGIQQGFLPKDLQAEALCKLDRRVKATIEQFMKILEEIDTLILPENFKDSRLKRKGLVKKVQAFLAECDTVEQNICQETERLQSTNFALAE
Described as above.

Experiment [4] addresses T5, GST-ΔUbi peptide (Bag-1L 220-269) (UniProt Q99933).
T5 sequence: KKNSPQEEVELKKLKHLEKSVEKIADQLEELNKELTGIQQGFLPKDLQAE
The experiment is described as above.

Experiment [5] deals with T6, HA-tagged Bag-1 peptide (Bag-1L 202-269) (UniProt Q99933).
T6 sequence: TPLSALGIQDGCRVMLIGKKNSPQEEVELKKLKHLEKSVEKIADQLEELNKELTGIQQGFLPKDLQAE
The experiment can be described thus: co-IP; HEK 293 cells transfected with HA-tagged Bag-1 peptide, treated with DSP cross-linker; legend: immunoprecipitated with anti-HA or IgG, blotted with anti-GRP78/BiP (methods: the reverse).

Experiment [6] deals with GST-fused GRP78-SBD (GRP78 409-651) (UniProt P11021). The experiment can be described thus: pull-down; 10 µg GST-fused GRP78 full length, ATPase domain or SBD, incubated with lysate (100-500 µg) of HEK-293 cells transfected with HA-tagged Bag-1 constructs; Western blot with HA antibody; only the target purified.

“GRP78/BiP (glucose regulated protein GRP78), endogenous in 22Rv.1 prostate cancer cells (from UniProt P11021 19-654)”: the binding result is recorded as “binds” in experiment [1]; “no binding” in experiment [2]; “binds” in experiment [3]; “binds” with GST-fused Bag-1L; “no binding” in experiment [4].

With “GRP78/BiP, endogenous in HEK-293 cells (from UniProt P11021 19-654)”, in experiment [5], the binding result is “binds”.

In the case of TPLSALGIQDGCRVMLIGKKNSPQEEVELKKLKHLEKSVE (peptide, UniProt Q99933-1 202-241) [HA-tagged N-ter-Bag-1 peptide (Bag-1L 202-241)], the binding entry in experiment [6] is on record as “binds”.

B1: HA-tagged Bag-1 peptide (Bag-1L 202-269) (peptide, UniProt Q99933-1 202-269)
chain: TPLSALGIQDGCRVMLIGKKNSPQEEVELKKLKHLEKSVEKIADQLEELNKELTGIQQGFLPKDLQAE
For B1, in experiment [6], the binding result is “binds”.
